PubChem BioAssay AID720542 (National Center for Advancing Translational Sciences (NCATS), 2013)
In all, about 360,000 compounds went through this assay and about 740 (0.21%) were called active. The inconclusive results got no clear call from the source; some entries with a clear call stand among them for comparison. Calls come from the whole dose curve; as a rule, active = well fitted inhibition curve with a large enough effect; inconclusive = small, poorly fitted or top-dose-only effect; inactive = no such curve, though single readings can be large or run the other way. Potencies of inconclusive entries are left out as doubtful fits.

test system: Plasmodium falciparum AMA1 (3D7) - RON2 peptide interaction; assay: qHTS for Inhibitors of AMA1-RON; Towards Development of Antimalarial Drug Lead: Primary Screen; conditions: AlphaScreen AMA1-biotinylated RON2 peptide binding; activity change, negative = inhibition: at 58.2 µM (top of the series) unless noted; note: nearly all actives have a fitted effect of over 45% in size;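 for activity change, negative = inhibition: 0% = vehicle wells and -100% = peptide control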
Summary of the method: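 AMA1 (3D7) with his tag at 25 nM final met compounds first, then biotinylated RON2 peptide at 25 nM; detection used donor plus acceptor beads, 10 µg/mL apiece, read by AlphaScreen after 30 min at room temperature.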
Potency is the fitted concentration of half-maximal effect; tags give direction and shape of the fitted curve.

| Structure (SMILES) | activity change, negative = inhibition | Potency |
| --- | --- | --- |
| Cc1ccc(CN2CCN(CC(=O)N/N=C/c3ccc(C)o3)CC2)cc1 | inactive: 33.6% | – |
| Cc1ccc(C(=O)c2ccc([N+](=O)[O-])cc2)c(C)c1 | – | inconclusive [inhibitor, partial curve] |
| Cn1c(-c2cccc([N+](=O)[O-])c2)cnc1NCc1cccc([N+](=O)[O-])c1 | – | inconclusive [inhibitor, partial curve] |
| COc1ccccc1N1CCN(Cc2ccc(OC)c3ccccc23)CC1 | – | inconclusive [inhibitor, partial curve] |
| COc1ccc(-c2c(-c3ccsc3)oc3ccc(N4CCOCC4)cc23)cn1 | – | inconclusive [inhibitor, partial curve] |
| COc1ccc(NC(=O)Nc2ccccc2SC)cc1OC | inactive: -6.49% | – |
| CC(=O)N(C)C(c1ccc(N(C)C)cc1)c1nnnn1-c1c(C)cccc1C (stereo unspecified) | – | inconclusive [inhibitor, partial curve] |
| Cc1ccc(NC(=O)COC(=O)CCc2c[nH]c3ccccc23)cc1[N+](=O)[O-] | – | inconclusive [inhibitor, single point] |
| COc1ccc(NC(=O)c2cc(-c3ccccn3)nc3ccccc23)c(OC)c1 | inactive: -20.5% | – |
| O=P1(c2ccccc2)Nc2ccccc2N1c1ccccc1 (stereo unspecified) | – | inconclusive [inhibitor, single point] |
| CSc1ccccc1CNc1nc(NCC2CC2)nc2ccsc12 | – | inconclusive [inhibitor, partial curve] |
| COc1ccc([C@H]2CC(=O)C=C(c3ccccc3Oc3ccccc3)C2)cc1 | inactive: -8.02% | – |
| COc1ccc(CCNc2ccc(S(=O)(=O)N3CCCC3)cc2[N+](=O)[O-])cc1 | – | inconclusive [inhibitor, partial curve] |
| Cc1ccc(C(=O)Nc2ccc(O)cc2C(=O)O)cc1C | – | inconclusive [inhibitor, single point] |
| O=C(N/N=C/c1cc(Cl)cc([N+](=O)[O-])c1O)c1ccc2c(c1)OCO2 | – | inconclusive [inhibitor, full curve] |
| CCC(=NCc1ccc(Cl)c(Cl)c1)c1nc(-c2ccco2)oc1O | – | inconclusive [inhibitor, single point] |
| OC(CNCCNc1ncccc1C(F)(F)F)COc1ccc(F)cc1 (stereo unspecified) | inactive: 10.9% | – |
| COc1ccc(OC)c(NC2c3ccccc3C(=O)N2Cc2ccc3c(c2)OCO3)c1 (stereo unspecified) | – | active: 15.8 µM |
| Cn1ncc2c(Nc3ccc(-c4ccccc4)cc3)ncnc21 | inactive: 2.09% | – |
| Cc1ccc(S(=O)(=O)Cc2ccc(C(=O)NCc3ccc4c(c3)OCO4)o2)cc1 | inactive: -9.09% | – |
| COCC(C)n1c(C)cc(C(=O)COC(=O)c2oc3ccccc3c2C)c1C (stereo unspecified) | – | inconclusive [inhibitor, single point] |
| Cc1csc(N=Nc2ccc(N(C)C)cc2)[n+]1[O-] | – | active: 14.1 µM |
| N#Cc1c(Sc2ncc(C(F)(F)F)cc2Cl)nsc1C/C=N\OCc1c(F)cccc1Cl | – | inconclusive [inhibitor, single point] |
| CCOc1ccc(OCC(=O)Nc2ccccc2N2CCCC2)cc1 | – | inconclusive [inhibitor, single point] |

| Structure (SMILES) | activity change, negative = inhibition | Potency |
| --- | --- | --- |
| CCSc1nnc(NC(=O)c2cnccn2)s1 | inactive: 92.6% | – |
| CCOC(=O)c1cc2ccccc2n1C1CCN(CCc2ccccc2)CC1 | – | inconclusive [inhibitor, partial curve] |
| CCOC(=O)/C(=C\c1ccc(Cl)cc1)c1nc2sc(C)c(C)c2c(=O)[nH]1 | inactive: 9.03% | – |
| Cc1c(OCc2nn[nH]n2)ccc2c3c(c(=O)oc12)CCC(C)C3 (stereo unspecified) | – | inconclusive [inhibitor, single point] |
| Oc1ccc(Cl)cc1C=NN1CCCCCC1 | – | inconclusive [inhibitor, partial curve] |
| Nc1ccc(N=Nc2ccc(O)cc2)c(N)n1 | inactive: -25.7% | – |
| CN(C)c1ccc(C=c2c3ccccc3n3c2c2ccccc2[n+]3C)cc1 | – | inconclusive [inhibitor, partial curve] |
| COc1cc(N2CCCC2)c(OC)cc1/C=C(/C#N)c1cccc(Br)c1 | – | inconclusive [inhibitor, full curve] |
| Cc1nc(Sc2ccc(Br)cc2)c(C#N)c(C)c1[N+](=O)[O-] | – | inconclusive [inhibitor, partial curve] |
| Cc1nn(C)cc1CN(C)C(=O)CCc1nnc(CCC2CCCCC2)o1 | inactive: 3.04% | – |
| CC1CN1c1cc2c(c3c1ccn3C)C1CCC2C1 (stereo unspecified) | – | inconclusive [inhibitor, partial curve] |
| Clc1ccc(Cl)c(OCCCCN2CCCCC2)c1 | – | inconclusive [inhibitor, full curve] |
| CC(C(=O)Nc1ccc([N+](=O)[O-])cc1)N1CCN(C/C=C/c2ccccc2)CC1 (stereo unspecified) | – | inconclusive [inhibitor, partial curve] |
| COc1ccc(NC(=O)CN(C)C(=O)c2c(C)nn(Cc3ccc(C)cc3)c2Cl)cc1 | – | inconclusive [inhibitor, full curve] |
| C[C@]12c3[nH]c4cc(-c5ccco5)ccc4c3CCN1C(=O)[C@@H](CC(=O)NCc1ccco1)C[C@@H]2C(=O)N1CCCCC1 | – | inconclusive [inhibitor, single point] |
| CCC(=O)NC(c1ccc(N(C)C)cc1)c1c(O)ccc2ccccc12 (stereo unspecified) | – | inconclusive [inhibitor, single point] |
| COc1ccccc1N1CCN(CC(=O)NCC2CCCO2)CC1 (stereo unspecified) | – | inconclusive [inhibitor, single point] |
| O=C(CNCc1cccs1)NC12CC3CC(CC(C3)C1)C2 | inactive: 5.83% | – |
| O=c1c(Oc2ccccc2Br)c(C(F)(F)F)oc2c(CN3CCCC3)c(O)ccc12 | – | inconclusive [inhibitor, single point] |
| CO[C@H]1C=CO[C@@]2(C)Oc3c(C)c(O)c4c(O)c(c(C=NN5CCN(C)CC5)c(O)c4c3C2=O)NC(=O)C(C)=CC=C[C@H](C)[C@H](O)[C@@H](C)[C@@H](O)[C@@H](C)[C@H](OC(C)=O)[C@@H]1C | – | inconclusive [inhibitor, partial curve] |
| COc1ccc(CCNC(=O)CSc2n[nH]c(N)n2)cc1 | inactive: 1.79% | – |
| CCOc1cc(Cl)c(S(=O)(=O)NCCCN2CCOCC2)cc1Cl | – | inconclusive [inhibitor, single point] |
| CC(C)C(=O)Nc1ccc(NC(=O)c2ccc(COc3ccccc3)cc2)cc1 | inactive: 6.56% | – |
| O=C(NCCO)c1ccc(CSc2nc3ccccc3[nH]2)cc1 | inactive: 6.25% | – |

| Structure (SMILES) | activity change, negative = inhibition | Potency |
| --- | --- | --- |
| O=c1c2c(-c3cccs3)csc2ncn1-n1cccc1 | inactive: -10.6% | – |
| CC(NNC(=S)N1CCN(c2ccccn2)CC1)c1nccc2ccccc12 (stereo unspecified) | – | inconclusive [inhibitor, single point] |
| O=C(O)c1c[nH]c2nccnc12 | – | inconclusive [inhibitor, partial curve] |
| COc1cc(C(=O)N=c2sc3c(C)ccc(OC)c3n2C)cc(OC)c1OC | inactive: -9.01% | – |
| Cc1ccccc1C(=O)Nc1ccc(C(=O)N/N=C/c2ccccn2)cc1 | inactive: 51.2% | – |
| COc1ccc(-n2c(/C=C/c3ccc(O)cc3)nc3ccccc3c2=O)cc1 | inactive: 1.56% | – |
| O=[N+]([O-])c1ccc(C(c2ccc([N+](=O)[O-])cc2)c2ccc([N+](=O)[O-])cc2)cc1 | – | inconclusive [inhibitor, single point] |
| COc1ccc(CC(=O)Nc2nc(-c3ccc(OC)c(OC)c3)cs2)cc1OC | – | inconclusive [inhibitor, partial curve] |
| Cn1cnc2c(=O)sc3ccccc3c21 | inactive: -2.17% | – |
| CCC1=Nc2cc(C(=O)NCc3ccco3)ccc2Sc2ccc(Cl)cc21 | inactive: -9.85% | – |
| CN(C)c1ccc(/C=C/C(=O)c2ccc(C(C)(C)C)cc2)cc1[N+](=O)[O-] | – | inconclusive [inhibitor, partial curve] |
| O=C(CSc1ccc(-c2ccccn2)nn1)c1ccc([N+](=O)[O-])cc1 | – | active: 12.6 µM |
| Cn1cccc1-c1nc2ccccc2n1Cc1ccccc1 | – | inconclusive [inhibitor, single point] |
| CC1(C(=O)NS(=O)(=O)c2ccccc2)CCN1C(=O)CCc1ccc(Cl)cc1Cl (stereo unspecified) | inactive: 1.79% | – |
| CCOC(=O)c1c(CSc2ccccc2)n(C)c2cc(Br)c(OCC(O)CNC(CO)(CO)CO)cc12 (stereo unspecified) | – | inconclusive [inhibitor, single point] |
| Cc1cccc(C)c1-n1nnnc1C1(C)CCC(=O)N1Cc1cccc(C(F)(F)F)c1 (stereo unspecified) | inactive: -7.84% | – |
| COc1ccc(-c2nc3c(C)cc(Br)cn3c2CC2CCCCC2)cc1OC | – | inconclusive [inhibitor, partial curve] |
| O=C(NCC1CCCO1)c1cc2ccccc2nc1Cl (stereo unspecified) | inactive: -3.25% | – |
| C/C(=N\NC(=O)CCc1c[nH]c2ccccc12)c1cccc([N+](=O)[O-])c1 | – | inconclusive [inhibitor, single point] |
| CN(C)C(=O)c1cccc(-c2cnc3c(NC=O)cc(-c4ccc(N(C)C)cc4)cn23)c1 | – | inconclusive [inhibitor, partial curve] |
| O=[N+]([O-])c1ccccc1Nc1ccc(O)cc1 | – | inconclusive [inhibitor, partial curve] |
| COc1ccc([C@H]2CC(=O)C=C(c3cc4ccccc4s3)C2)cc1OC | – | inconclusive [inhibitor, single point] |
| CCOc1ccc(N(CC(=O)Nc2cccnc2)S(C)(=O)=O)cc1 | inactive: -0.943% | – |
